Measured values taken from PMC6919601, “Identification of Plasmodium dipeptidyl aminopeptidase allosteric inhibitors by high throughput screening” (PLoS ONE, 2019).
Hit rate of the full screen: of about 110,000 compounds, about 230 (0.21%) showed an effect of 50% or more. Some of the results follow.

Each molecule was assayed against DPAP1 (Plasmodium falciparum, UniProt Q8IIJ9) (assay: primary screen, percent inhibition; read by cleavage of a fluorogenic dipeptide substrate; higher = more effect of the substance).
Design: species or system P. falciparum D10 trophozoite lysates; single well
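Further: 30 min substrate incubation versus DMSO and 10 µM JCP410 controls.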

Sequence of DPAP1 (Q8IIJ9 whole entry, looked up): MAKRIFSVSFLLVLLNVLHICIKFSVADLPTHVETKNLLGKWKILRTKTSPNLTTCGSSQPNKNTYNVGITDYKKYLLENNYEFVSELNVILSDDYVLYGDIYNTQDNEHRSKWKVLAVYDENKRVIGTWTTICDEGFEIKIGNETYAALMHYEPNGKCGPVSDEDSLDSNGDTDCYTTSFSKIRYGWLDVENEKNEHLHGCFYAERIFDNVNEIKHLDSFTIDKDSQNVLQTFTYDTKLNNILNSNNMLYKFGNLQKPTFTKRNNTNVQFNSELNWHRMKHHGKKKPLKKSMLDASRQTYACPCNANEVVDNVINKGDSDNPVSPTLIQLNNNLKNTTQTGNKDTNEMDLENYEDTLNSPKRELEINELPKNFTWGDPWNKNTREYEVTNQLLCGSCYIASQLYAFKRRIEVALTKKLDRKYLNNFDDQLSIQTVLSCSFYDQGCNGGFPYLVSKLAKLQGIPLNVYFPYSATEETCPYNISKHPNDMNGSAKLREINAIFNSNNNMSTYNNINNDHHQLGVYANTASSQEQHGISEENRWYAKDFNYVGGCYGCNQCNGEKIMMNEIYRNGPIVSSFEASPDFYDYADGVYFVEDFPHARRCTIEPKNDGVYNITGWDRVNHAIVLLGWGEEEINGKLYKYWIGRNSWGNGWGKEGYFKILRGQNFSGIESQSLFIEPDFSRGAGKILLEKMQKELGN

SMILES	% Inhibition @ 10 uM [%]
O=C1NCCCC[C@@H]1Nc1cnccn1	-12.8
CC1=C(C(=O)Nc2cc(C)ccn2)C(c2cccnc2)C2=C(O)CCCC2=N1 (stereo not shown)	-2.24
CCCCC(=O)N1CCc2cc(OC)c(OC)cc2C1COc1ccccc1OC (stereo not shown)	2.4
CCC1CCc2c(sc(NC(=O)c3ccc(Br)o3)c2C(N)=O)C1 (stereo not shown)	6.15
CCC(C)NC(=O)c1ccc(CS(=O)(=O)c2ccc(C)cc2)o1 (stereo not shown)	-8.9
Cc1ccn2c(NC(=O)Cc3ccccc3)c(-c3ccc(F)cc3)nc2c1	-0.58
Cc1nnc(SCC#CCO)s1	1.74
Cc1cc(C)c(C)c(OCCCCN2CCOCC2)c1	-0.351
CCOc1ccc(S(=O)(=O)N=Nc2c(O)n(C)c3ccccc23)cc1	6.27
C=Cc1ccc(Cn2c(C(=O)O)c(CNC(C)CCc3ccccc3)c3ccccc32)cc1 (stereo not shown)	3.54
CCOc1cc(C2C(C#N)=C(N)OC3=C2C(=O)CCC3)ccc1OC (stereo not shown)	4.6
Cc1cc(C)cc(N(CC(=O)NCC(O)c2ccccc2)S(=O)(=O)c2ccccc2)c1 (stereo not shown)	-2.29
CCOC(=O)C1CCCN(Cc2ccc(SC)cc2)C1 (stereo not shown)	-0.192
CC(C(=O)NCC1CCCO1)n1cccc1C(=O)c1ccccc1 (stereo not shown)	-11.9
Cc1ccc(/C=C2\N=C(c3ccc(C(C)(C)C)cc3)OC2=O)o1	-8.97
Cc1nn(-c2ccccc2)c2sc(C(N)=O)cc12	6.83
CCc1nn(CC(=O)NC(C)CC)c(=O)c2cccn12 (stereo not shown)	-4.93
COCCN1C(=O)c2ccccc2C(C(=O)NCCCN2CCOCC2)C1c1cccs1 (stereo not shown)	-7.99
OC1C2CN3CCN(C2)CC1(Cc1ccccc1)C3 (stereo not shown)	-3.6
CC(C)N(CCc1ccncc1)C(=S)NC1CCCCC1	3.93
Cc1cccc(C(=O)NCc2ccc3c(c2)OCO3)c1	-3.37
Cc1cc(C)nc(NC(=O)Nc2ccc(Cl)cc2)n1	-2.81
Nc1ncnc2[nH]c(SCC(=O)NCc3ccco3)nc12	-0.45
Cc1cccc(-c2noc(CCC(=O)NCC3CCCO3)n2)c1 (stereo not shown)	4.47
Cc1ccc(/C=C2/NC(=O)N(Cc3ccccc3F)C2=O)o1	-3.65
CC1(c2ccc(Cl)cc2)N=C(c2ccccc2)C(=S)N1 (stereo not shown)	4.07

SMILES	% Inhibition @ 10 uM [%]
C#CCOc1ccc(C=C2C(=O)OC(C)(C(C)(C)C)OC2=O)cc1 (stereo not shown)	0.275
N#C/C(=C\c1c(Oc2ccccc2)nc2ccccn2c1=O)C(=O)NCC1CCCO1 (stereo not shown)	4.99
N#Cc1nc(-c2ccccc2)cc(-c2ccccc2)n1	4.38
CCSc1nnc2c(=O)n(C)c(=O)n(C)c2n1	-10.7
COc1ccc(CCn2c(C)cc3c(c2=O)C(c2cccc(Cl)c2)C(C#N)=C(N)O3)cc1OC (stereo not shown)	-4.78
CCOC(=O)C1=C(C)N=c2s/c(=C/c3ccc(OC)cc3)c(=O)n2C1/C=C/c1ccccc1 (stereo not shown)	0.997
O=C(COc1ccc(Cl)cc1)Nc1ccccc1C(=O)Nc1ccccc1	-1.49
Cc1c(C(=O)O)cnn1-c1ccccc1	2.39
CCCCC/C=C/C(=O)Nc1nc2ccc(OCC)cc2s1	1.13
Cc1nnc2c(N3CC=C(c4ccccc4)CC3)nc3ccccc3n12	3.4
O=C(O)C1C2CCC(C2)C1C(=O)Nc1ccc(F)c(Cl)c1 (stereo not shown)	5.6
COCCNC(=O)Cn1ncc2c3cc(C)ccc3nc-2c1O	2.42
COc1ccc(-c2noc(CSc3nc4cc(C)ccc4[nH]3)n2)cc1OC	-1.11
Cc1ccc(NC(=O)Cc2noc3ccccc23)nc1	0.0845
COc1ccc(Cn2c(CCC(=O)NC3CCCC3)nc3cccnc32)cc1	-2.88
COc1ccc(C2c3c(-c4ccccc4O)n[nH]c3C(=O)N2CCCO)cc1 (stereo not shown)	-1.35
O=C(Nc1ccc(Cl)cc1[N+](=O)[O-])c1cc2ccccc2cc1O	-1.25
CCC(NC1C=CS(=O)(=O)C1)C(=O)O (stereo not shown)	-7.25
CCCCSc1nc(O)cc(O)n1	-0.856
O=C1CC(c2cc3c(cc2Br)OCO3)c2cc3c(cc2N1)OCO3 (stereo not shown)	-0.891
CCCC(=O)Nc1sc(Cc2ccccc2)c(C)c1C(N)=O	1.94
CC(C)C[C@H](/N=c1\cc(O)oc2ccccc12)C(=O)NCC#N	-6.56
C=CCn1c2ccccc2c2nnc(SCC(=O)c3ccccc3)nc21	-6.6
Cc1cc(C(=O)C(=O)Nc2nnc(-c3cccnc3)s2)c(C)n1-c1ccccc1F	3.92
CCCCNC(=O)C1CCCN(c2nc3ccccc3o2)C1 (stereo not shown)	2.05
O=C(CSc1nc2ccsc2c(=O)n1Cc1ccc(C(=O)O)cc1)Nc1nccs1	0.4
